Measured values taken from paper PMC4857127.
No constants are given. Whether binding was seen depends on the method and setting. For part of these data: Binding seen in cells or lysates may run through a third protein. Some entries that bind do so weakly or less than the wild type. For part of these data: Tags and fused reporters may be left off the sequences shown. One block for each molecule: values may come before it.

Amino acid sequences for entries named in this document (tags omitted). A change or cut given only in a name is not applied to a line headed by its entry. Residues count along the entry.
UniProt Q9Y5S8, residues 217-550: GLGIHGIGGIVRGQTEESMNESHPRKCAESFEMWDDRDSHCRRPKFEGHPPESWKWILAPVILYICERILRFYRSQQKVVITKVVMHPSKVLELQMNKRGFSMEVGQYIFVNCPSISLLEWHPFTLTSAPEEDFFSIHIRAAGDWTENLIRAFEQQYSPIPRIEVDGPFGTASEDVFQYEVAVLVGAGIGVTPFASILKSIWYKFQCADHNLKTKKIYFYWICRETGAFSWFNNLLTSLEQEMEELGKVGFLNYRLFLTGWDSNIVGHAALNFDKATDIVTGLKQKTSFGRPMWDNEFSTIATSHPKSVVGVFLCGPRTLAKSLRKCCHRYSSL
UniProt O60602: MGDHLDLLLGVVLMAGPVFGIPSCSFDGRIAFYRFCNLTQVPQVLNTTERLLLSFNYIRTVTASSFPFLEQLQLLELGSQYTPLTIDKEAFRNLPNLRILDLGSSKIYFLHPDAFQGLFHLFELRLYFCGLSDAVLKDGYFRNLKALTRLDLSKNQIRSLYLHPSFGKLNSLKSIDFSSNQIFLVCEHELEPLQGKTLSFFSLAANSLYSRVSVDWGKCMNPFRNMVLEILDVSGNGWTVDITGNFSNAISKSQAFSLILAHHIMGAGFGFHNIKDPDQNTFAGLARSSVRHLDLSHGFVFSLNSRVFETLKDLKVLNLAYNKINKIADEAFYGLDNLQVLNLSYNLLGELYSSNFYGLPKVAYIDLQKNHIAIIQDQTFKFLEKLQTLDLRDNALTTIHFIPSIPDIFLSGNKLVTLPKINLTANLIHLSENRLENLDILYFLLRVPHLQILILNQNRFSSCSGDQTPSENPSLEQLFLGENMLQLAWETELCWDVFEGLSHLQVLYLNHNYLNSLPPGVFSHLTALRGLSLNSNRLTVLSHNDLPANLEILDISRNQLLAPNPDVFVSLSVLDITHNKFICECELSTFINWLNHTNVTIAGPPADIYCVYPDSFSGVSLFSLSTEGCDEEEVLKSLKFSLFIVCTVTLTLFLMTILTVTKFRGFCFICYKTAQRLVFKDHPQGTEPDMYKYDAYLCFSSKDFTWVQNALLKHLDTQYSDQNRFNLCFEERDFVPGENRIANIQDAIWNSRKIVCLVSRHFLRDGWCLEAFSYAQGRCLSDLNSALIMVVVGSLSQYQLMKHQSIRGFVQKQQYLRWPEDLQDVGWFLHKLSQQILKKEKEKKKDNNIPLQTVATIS
Toll/Interleukin-1 receptor (TIR, AA 691–837) domain of TLR5: residues 691-837 of O60602

Legend:
[1] = target: T1, GST-Nox4 (AA 248–578) (human) (UniProt Q9NPH5); test: pull-down; GST fusion proteins conjugated with glutathione-Sepharose 4B beads, incubated with lysates of HEK293T cells expressing Flag-TLR5; detection with anti-Flag; only the target purified
T1 sequence: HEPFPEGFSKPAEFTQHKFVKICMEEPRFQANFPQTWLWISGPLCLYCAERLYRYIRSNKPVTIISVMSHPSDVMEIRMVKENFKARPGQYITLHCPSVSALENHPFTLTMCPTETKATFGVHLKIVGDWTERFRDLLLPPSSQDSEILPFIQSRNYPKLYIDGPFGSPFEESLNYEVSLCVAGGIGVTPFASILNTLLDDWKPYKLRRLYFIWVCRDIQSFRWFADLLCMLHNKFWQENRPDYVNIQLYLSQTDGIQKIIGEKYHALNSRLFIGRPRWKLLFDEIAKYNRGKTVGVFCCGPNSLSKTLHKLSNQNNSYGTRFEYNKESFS

[2] = target: GST-Nox1 (AA 217–550) (human) (UniProt Q9Y5S8); test: as above
[3] = target: Toll/Interleukin-1 receptor (TIR, AA 691–837) domain of TLR5 (UniProt O60602); test: two-hybrid; yeast expressing pB42AD-TIR-TLR5 with pLexA-Nox C-terminal regions; after selection for Trp+ and His+, Leu-dependent growth and β-galactosidase activity (X-gal) in SD/galactose/raffinose medium
Flag-tagged TLR5 = Flag-tagged TLR5 (UniProt O60602); test: co-IP; HEK293T cells transfected with Flag-CMV-TLR5 and HA-Nox1-C or HA-Nox4-C; serum starvation, then without or with flagellin (100 ng/ml, 30 min); IP with antibody to Flag, immunoblot with antibodies to HA

binding (Flag-tagged TLR5): binds
Molecule: pcDNA3.0-HA-Nox1C (AA 217–550) (from UniProt Q9Y5S8 217-550) (domain or fragment)

binding [3]: no binding
B2: Nox3 COOH-terminal region (AA 296–568) (domain or fragment, UniProt Q9HBY0 296-568)
chain: TKVVSHPSGVLELHMKKRGFKMAPGQYILVQCPAISSLEWHPFTLTSAPQEDFFSVHIRAAGDWTAALLEAFGAEGQALQEPWSLPRLAVDGPFGTALTDVFHYPVCVCVAAGIGVTPFAALLKSIWYKCSEAQTPLKLSKVYFYWICRDARAFEWFADLLLSLETRMSEQGKTHFLSYHIFLTGWDENQALHIALHWDENTDVITGLKQKTFYGRPNWNNEFKQIAYNHPSSSIGVFFCGPKALSRTLQKMCHLYSSADPRGVHFYYNKESF

The remaining lines, values behind:

Molecule: Flag-tagged TLR5 (from UniProt O60602 21-858) (receptor)
binding [1]: binds
binding [2]: binds

Molecule: pLexA-Nox1-C (COOH-terminal region, AA 217–550) (from UniProt Q9Y5S8 217-550) (domain or fragment)
binding [3]: binds

B1: Nox2 COOH-terminal region (AA 291–571) (domain or fragment, UniProt P04839 291-570)
chain: SQQKVVITKVVTHPFKTIELQMKKKGFKMEVGQYIFVKCPKVSKLEWHPFTLTSAPEEDFFSIHIRIVGDWTEGLFNACGCDKQEFQDAWKLPKIAVDGPFGTASEDVFSYEVVMLVGAGIGVTPFASILKSVWYKYCNNATNLKLKKIYFYWLCRDTHAFEWFADLLQLLESQMQERNNAGFLSYNIYLTGWDESQANHFAVHHDEEKDVITGLKQKTLYGRPNWDNEFKTIASQHPNTRIGVFLCGPEALAETLSKQSISNSESGPRGVHFIFNKENF
binding [3]: no binding
